# Experiments:
# Assay type in all cases: in vivo
# Botrytis cinerea = test: Test Example B: Gray mold on tomato; conditions: for control value, Test B (gray mold on tomato): Table 7, Test B; for Test B control value: Gray mold on tomato; for Test B control value (gray mold on tomato): class of control value, Table 7
# Alternaia brassicicola = test: Test Example C: Alternaria sooty spot on cabbage; conditions: for control value, Test C (Alternaria sooty spot on cabbage): Table 7, Test C; for Test C control value: Alternaria sooty spot on cabbage; for Test C control value (Alternaria sooty spot on cabbage): class of control value, Table 7
# [1] = test system: Blumeria graminis f. sp. hordei; test: Test Example D: Powdery mildew on barley; conditions: for control value, Test D (powdery mildew on barley): Table 7, Test D; for Test D control value: Powdery mildew on barley; for Test D control value (powdery mildew on barley): class of control value, Table 7
# Plasmopara viticola = test: Test Example G: Downy mildew on vine; conditions: for control value, Test G (downy mildew on vine): 250 ppm sprayed (2.5 ml/pot) before inoculation, assessed 7 to 10 days after inoculation; for Test G control value: Downy mildew on vine, 250 ppm sprayed, 7 to 10 days after inoculation; for Test G control value / Test G control value (downy mildew on vine): 2.5 ml/pot; for Test G control value (downy mildew on vine): 250 ppm spray, investigated 7 to 10 days after inoculation
# Puccinia recondita = test: Test Example E: Brown rust on wheat; conditions: for control value, Test E (brown rust on wheat): Table 7, Test E; for Test E control value: Brown rust on wheat; for Test E control value (brown rust on wheat): class of control value, Table 7
Compound,Test B control value (Botrytis cinerea),Test C control value (Alternaia brassicicola),Test D control value [1],Test G control value (Plasmopara viticola),Test E control value (Puccinia recondita),Test B control value (gray mold on tomato) (Botrytis cinerea),Test C control value (Alternaria sooty spot on cabbage) (Alternaia brassicicola),Test D control value (powdery mildew on barley) [1],Test G control value (downy mildew on vine) (Plasmopara viticola),Test E control value (brown rust on wheat) (Puccinia recondita),also measured
CCn1c(-c2ccc(OC)cc2Br)c(-n2cc(F)cn2)cc(Cl)c1=O [Compound 355],,,,,,,,,,,"control value, Test B (gray mold on tomato) (Botrytis cinerea): H (H shows the control value more than 50%); control value, Test C (Alternaria sooty spot on cabbage) (Alternaia brassicicola): H (H shows the control value more than 50%); control value, Test D (powdery mildew on barley) [1]: L (L shows the control value of 50% or less); control value, Test G (downy mildew on vine) (Plasmopara viticola): L (L shows the control value of 50% or less); control value, Test E (brown rust on wheat) (Puccinia recondita): H (H shows the control value more than 50%)"
COc1cc(F)c(-c2c(-n3cc(Cl)cn3)cc(Cl)c(=O)n2CC(F)F)c(F)c1 [Compound 111],H (H shows the control value more than 50%),H (H shows the control value more than 50%),H (H shows the control value more than 50%),L (L shows the control value of 50% or less),H (H shows the control value more than 50%),,,,,,
Cn1c(-c2c(F)cccc2F)c(-n2cc(F)cn2)cc(Br)c1=O [Compound 462],,,,,,H (H shows the control value more than 50%),H (H shows the control value more than 50%),H (H shows the control value more than 50%),L (L shows the control value of 50% or less),H (H shows the control value more than 50%),
CCn1c(-c2c(F)cc(F)cc2F)c(-n2cc(C)cn2)cc(Cl)c1=O [Compound 85],H (H shows the control value more than 50%),H (H shows the control value more than 50%),H (H shows the control value more than 50%),L (L shows the control value of 50% or less),H (H shows the control value more than 50%),,,,,,
Cc1cnn(-c2ccc(=O)n(C)c2-c2ccc(F)cc2Cl)c1 [Compound 474],,,,,,H (H shows the control value more than 50%),L (L shows the control value of 50% or less),H (H shows the control value more than 50%),L (L shows the control value of 50% or less),H (H shows the control value more than 50%),
CCn1c(-c2ccccc2C(F)(F)F)c(-n2cc(C)cn2)ccc1=O [Compound 372],,,,,,L (L shows the control value of 50% or less),L (L shows the control value of 50% or less),H (H shows the control value more than 50%),H (H shows the control value more than 50%),L (L shows the control value of 50% or less),
CCn1c(-c2ccc(OC)cc2Cl)c(-c2ccsc2Cl)cc(Br)c1=O [Compound 504],,,,,,H (H shows the control value more than 50%),H (H shows the control value more than 50%),L (L shows the control value of 50% or less),H (H shows the control value more than 50%),H (H shows the control value more than 50%),
CCn1c(-c2ccccc2C(F)(F)F)c(-n2cc(C)cn2)cc(Br)c1=O [Compound 374],,,,,,L (L shows the control value of 50% or less),L (L shows the control value of 50% or less),H (H shows the control value more than 50%),H (H shows the control value more than 50%),H (H shows the control value more than 50%),
CCn1c(-c2c(F)cccc2F)c(-c2ncc(OC)o2)cc(Cl)c1=O [Compound 162],L (L shows the control value of 50% or less),L (L shows the control value of 50% or less),L (L shows the control value of 50% or less),H (H shows the control value more than 50%),L (L shows the control value of 50% or less),,,,,,
CCn1c(-c2ccc(OC)cc2Cl)c(-c2cnco2)cc(Cl)c1=O [Compound 33],L (L shows the control value of 50% or less),H (H shows the control value more than 50%),L (L shows the control value of 50% or less),L (L shows the control value of 50% or less),L (L shows the control value of 50% or less),,,,,,
CCn1c(-c2c(F)cc(F)cc2F)c(-n2cnc(Cl)n2)cc(Br)c1=O [Compound 262],,,,,,,,,,,"control value, Test B (gray mold on tomato) (Botrytis cinerea): H (H shows the control value more than 50%); control value, Test C (Alternaria sooty spot on cabbage) (Alternaia brassicicola): H (H shows the control value more than 50%); control value, Test D (powdery mildew on barley) [1]: H (H shows the control value more than 50%); control value, Test G (downy mildew on vine) (Plasmopara viticola): L (L shows the control value of 50% or less); control value, Test E (brown rust on wheat) (Puccinia recondita): H (H shows the control value more than 50%)"
CCn1c(-c2c(F)cccc2F)c(-c2ccsc2C)cc(Br)c1=O [Compound 444],,,,,,L (L shows the control value of 50% or less),H (H shows the control value more than 50%),L (L shows the control value of 50% or less),L (L shows the control value of 50% or less),H (H shows the control value more than 50%),
Cn1c(-c2c(F)cccc2F)c(-c2cccnc2Cl)cc(Br)c1=O [Compound 106],H (H shows the control value more than 50%),H (H shows the control value more than 50%),L (L shows the control value of 50% or less),H (H shows the control value more than 50%),H (H shows the control value more than 50%),,,,,,
CCn1c(-c2c(F)cccc2F)c(-c2cccnc2Cl)cc(Br)c1=O [Compound 55],H (H shows the control value more than 50%),H (H shows the control value more than 50%),H (H shows the control value more than 50%),L (L shows the control value of 50% or less),H (H shows the control value more than 50%),,,,,,
CCn1c(-c2ccc(OC)cc2Cl)c(-n2cc(Cl)cn2)cc(Cl)c1=O [Compound 159],H (H shows the control value more than 50%),H (H shows the control value more than 50%),H (H shows the control value more than 50%),L (L shows the control value of 50% or less),H (H shows the control value more than 50%),,,,,,
CCn1c(-c2ccccc2C#N)c(-n2cc(C)cn2)cc(Br)c1=O [Compound 471],,,,,,L (L shows the control value of 50% or less),H (H shows the control value more than 50%),L (L shows the control value of 50% or less),L (L shows the control value of 50% or less),L (L shows the control value of 50% or less),
CCc1ccccc1-c1c(-n2cc(C)cn2)cc(Br)c(=O)n1CC [Compound 321],,,,,,,,,,,"control value, Test B (gray mold on tomato) (Botrytis cinerea): L (L shows the control value of 50% or less); control value, Test C (Alternaria sooty spot on cabbage) (Alternaia brassicicola): L (L shows the control value of 50% or less); control value, Test D (powdery mildew on barley) [1]: L (L shows the control value of 50% or less); control value, Test G (downy mildew on vine) (Plasmopara viticola): L (L shows the control value of 50% or less); control value, Test E (brown rust on wheat) (Puccinia recondita): L (L shows the control value of 50% or less)"
Cc1cnn(-c2ccc(=O)n(CC(F)F)c2-c2ccc(F)cc2F)c1 [Compound 254],,,,,,,,,,,"control value, Test B (gray mold on tomato) (Botrytis cinerea): H (H shows the control value more than 50%); control value, Test C (Alternaria sooty spot on cabbage) (Alternaia brassicicola): H (H shows the control value more than 50%); control value, Test D (powdery mildew on barley) [1]: H (H shows the control value more than 50%); control value, Test G (downy mildew on vine) (Plasmopara viticola): H (H shows the control value more than 50%); control value, Test E (brown rust on wheat) (Puccinia recondita): H (H shows the control value more than 50%)"
CCn1c(-c2c(F)cc(F)cc2F)c(-n2nc(C)c(Cl)c2C)ccc1=O [Compound 95],H (H shows the control value more than 50%),H (H shows the control value more than 50%),H (H shows the control value more than 50%),L (L shows the control value of 50% or less),L (L shows the control value of 50% or less),,,,,,
CCn1c(-c2ccccc2Br)c(-n2cc(F)cn2)cc(Br)c1=O [Compound 358],,,,,,,,,,,"control value, Test B (gray mold on tomato) (Botrytis cinerea): H (H shows the control value more than 50%); control value, Test C (Alternaria sooty spot on cabbage) (Alternaia brassicicola): H (H shows the control value more than 50%); control value, Test D (powdery mildew on barley) [1]: L (L shows the control value of 50% or less); control value, Test G (downy mildew on vine) (Plasmopara viticola): L (L shows the control value of 50% or less); control value, Test E (brown rust on wheat) (Puccinia recondita): H (H shows the control value more than 50%)"
Cn1c(-c2c(F)cccc2F)c(-n2cc(F)cn2)ccc1=O [Compound 413],,,,,,H (H shows the control value more than 50%),L (L shows the control value of 50% or less),H (H shows the control value more than 50%),L (L shows the control value of 50% or less),L (L shows the control value of 50% or less),

# From US11178870B2 (priority 2017, dated 2021)
